Assay results reported in the supplement of paper PMC10320760.
This is a noisy data set.

B1: Ydj1; a variant is named by its letters at X, in order (parent)
chain: MVKETKFYDILGVPVTATDVEIKKAYRKCALKYHPDKNPSEEAAEKFKEASAAYEILSDPEKRDIYDQFGEDGLSGAGGAGGFPGGGFGFGDDIFSQFFGAGGAQRPRGPQRGKDIKHEISASLEELYKGRTAKLALNKQILCKECEGRGGKKGAVKKCTSCNGQGIKFVTRQMGPMIQRFQTECDVCHGTGDIIDPKDRCKSCNGKKVENERKILEVHVEPGMKDGQRIVFKGEADQAPDVIPGDVVFIVSERPHKSFKRDGDDLVYEAEIDLLTAIAGGEFALEHVSGDWLKVGIVPGEVIAPGMRKVIEGKGMPIPKYGGYGNLIIKFTIKFPENHFTSEENLKKLEEILPPRIVPAIPKKATVDECVLADFDPAKYNRTRASRGGANYDSDEEEQGGEGVQCXXX

Variants of: B1
Test: enrichment factor, frequency at 37 °C / frequency at 25 °C (thermotolerance selection) (ratio); higher = more growth at 37 °C, higher likelihood of farnesylation
Conditions: with Saccharomyces cerevisiae ydj1Δ (yWS304); selective temperature 37 °C; reference temperature 25 °C
Procedure: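 Pooled library of all 8,000 Ydj1-CXXX C-terminal motif variants (native CASQ replaced by C + three variable residues, one codon per amino acid) expressed from a CEN plasmid in S. cerevisiae ydj1Δ (yWS304). The library was grown in SC-Ura liquid to A600 ~2 (~8 generations) at permissive 25 °C or selective 37 °C. Reads from 8 and 7 replicates were pooled and variants counted by NGS. Enrichment factor = frequency at 37 °C / frequency at 25 °C, with a +1 correction; it reports Ydj1-dependent thermotolerance, used as a read-out of farnesylation by yeast FTase.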

Variant	enrichment factor
DMA	1.53
DME	0.29
DMF	1.48
DMI	1.86
DML	1.31
DMD	0.529
DMG	1.47
DMC	1.27
DMH	1.3
DMK	0.145
LMH	2.92
LMK	1.56
LMD	1.51
LMC	2.01
LMF	3.11
LMI	1.93
LME	1.35
LMA	1.8
LMG	2.06
QLR	0.868
QLS	2.51
QLY	2.76
QLT	2.85
QLP	0.171

Variant	enrichment factor
QLW	0.788
QLV	3.96
QLQ	4.11
LLT	1.99
LLY	1.88
LLV	2.03
LLS	1.41
LLR	0.4
LLQ	1.79
LLW	1.25
HLW	1.7
HLR	0.133
HLV	0.993
HLQ	4.03
HLY	0.869
HLS	2.84
HLT	2.36
YMA	1.74
YMH	6.37
YMC	2.03
YMI	3.01
YME	1.85
YMG	1.81
YMD	2.21

Variant	enrichment factor
YMF	3.86
YMK	0.36
RMH	1.69
RMI	1.12
RMD	1.55
RMK	1.39
RME	1.64
RMF	1.24
RMC	0.345
RMG	2.21
RMA	3.09
FMA	1.35
FMD	1.57
FMI	3.87
FMK	0.238
FMG	3.9
FMF	0.891
FMC	0.98
FMH	5.94
FML	3.76
FME	1.77
MLY	1.51
MLV	4.05
MLR	0.23

Variant	enrichment factor
MLS	2.24
MLQ	2.8
MLW	1.2
MLP	0.255
MLT	1.93
ILQ	2.07
ILR	1.59
ILT	1.03
ILV	0.96
ILW	1.21
ILY	3.01
ILS	1.76
PMH	1.26
PMC	0.882
PMK	1.51
PMD	2.05
PMA	1.1
PME	1.46
PMF	0.785
PMG	1.56
PMI	0.704
CMK	1.3
CME	2.15
CMF	0.767

Variant	enrichment factor
CMH	1.8
CMD	1.84
CMI	1.21
CMC	0.76
CMG	1.29
CMA	0.882
KMD	1.79
KME	1.4
KMG	2.32
KMC	0.98
KMK	1.08
KMI	3.04
KMF	1.3
KMA	4.05
KMH	3.85
WMA	1.16
WME	1.65
WMF	1.35
WMI	1.65
WMC	0.29
WMD	1.79
WMH	1.27
WMG	2.03
WMK	0.264

Variant	enrichment factor
NMC	1.32
NMF	1.07
NMK	0.987
NMG	1.43
NMH	2.79
NMD	2.01
NMA	1.83
NMI	1.48
NME	1.51
RLY	1.4
RLQ	2.41
RLS	1.08
RLR	0.107
RLP	0.157
RLV	0.641
RLT	1.39
RLW	1.79
CLQ	1.13
CLW	0.169
CLT	0.965
CLS	0.746
CLR	0.716
CLP	1.01
CLY	0.999

Variant	enrichment factor
CLV	0.726
SMG	2.47
SMH	3.86
SME	1.7
SMD	1.85
SMA	2.29
SMI	0.897
SMK	1.53
SMF	3.37
SMC	0.267
GLR	0.185
GLY	1.62
GLV	1.26
GLT	1.44
GLS	1.34
GLQ	1.47
GLW	1.42
SLT	0.557
SLS	0.996
SLR	0.345
SLQ	2.23
SLV	1.07
SLY	1.85
SLP	0.19

Variant	enrichment factor
SLW	1.36
NLT	1.35
NLQ	2.82
NLW	1.11
NLR	0.228
NLY	1.96
NLS	1.36
NLV	0.772
NLP	0.295
TMH	2.45
TME	1.64
TMI	0.695
TMF	1.85
TMC	1.54
TMD	2.11
TMK	2.16
TMG	1.7
TMA	1.26
GMA	1.3
GMK	0.219
GMF	1.42
GMG	1.82
GMI	1.16
GMH	1.81

Variant	enrichment factor
GMC	0.602
GME	1.51
GMD	1.48
PLY	0.959
PLV	1.2
PLT	1.58
PLS	1.5
PLP	0.117
PLW	0.958
PLQ	1.32
PLR	0.192
ALY	0.886
ALW	1.16
ALS	1.72
ALV	0.806
ALT	0.713
ALQ	2.38
ALR	0.988
VMF	1.08
VMK	3.01
VMI	0.772
VME	1.56
VMA	0.632
VMD	2.27

Variant	enrichment factor
VMC	0.876
VMH	3.19
VMG	1.56
ELV	2.24
ELY	1.9
ELW	1.29
ELR	0.53
ELT	2.07
ELQ	2.59
ELS	3.86
VLT	1.06
VLY	0.745
VLQ	1.11
VLS	0.494
VLR	1.28
VLV	0.749
VLP	0.195
EME	1.31
EMG	1.72
EMF	2.32
EMA	1.96
EMI	2.21
EMC	1.26
EMK	1.38

Variant	enrichment factor
EMH	1.94
EMD	1.41
EML	1.65
KLR	0.113
KLW	0.602
KLY	2.11
KLQ	1.85
KLV	2.73
KLS	1.72
KLT	2.54
IMF	1.45
IMG	1.57
IMI	1.49
IMC	2.2
IMD	1.36
IMH	2.46
IME	1.45
IMK	1.22
IMA	1.95
MMK	1.42
MMF	0.869
MMA	2.32
MMD	1.71
MMG	1.85

Variant	enrichment factor
MMH	1.84
MME	1.38
MMI	0.463
MMC	1.71
AMG	2.37
AMC	1.44
AMK	1.31
AMI	1.18
AMF	2.05
AMA	1.48
AMD	1.63
AMH	3.21
AME	1.78
FLT	0.579
FLR	0.292
FLS	3.47
FLW	1.55
FLY	2.09
FLV	3.47
FLQ	2.08
HMA	4.56
HMI	1.16
HMK	1.58
HMD	1.88

Variant	enrichment factor
HMF	2.61
HMG	2.27
HME	2.24
HMC	1.43
HMH	5.1
TLT	0.98
TLS	1.08
TLP	0.114
TLY	1.02
TLQ	1.77
TLW	0.607
TLV	0.598
TLR	0.809
QME	1.74
QMG	3.72
QMK	1.49
QMC	1.3
QMI	1.16
QMF	1.38
QMD	1.62
QMA	2.92
QMH	2.2
WLW	2.46
WLR	0.242

Variant	enrichment factor
WLS	2.9
WLY	2.06
WLP	3.38
WLV	3.19
WLT	1.7
WLQ	2.99
YLR	0.153
YLT	1.62
YLP	3.21
YLQ	4.34
YLY	2.75
YLS	3.71
YLW	1.17
YLV	1.74
DLW	0.865
DLV	1.17
DLR	0.132
DLT	1.7
DLP	0.267
DLY	1.43
DLS	2.06
DLQ	2.38
